PubChem BioAssay AID504832 (National Center for Advancing Translational Sciences (NCATS), 2011)
The campaign covered roughly 310,000 compounds. About 18,000 (5.8%) were called active. The inconclusive results got no clear call from the source; some entries with a clear call stand among them for comparison. The call rests on the fitted dose curve; in most records, active means well fitted inhibition curve with a large enough effect; inconclusive means small, poorly fitted or top-dose-only effect, or another doubt; inactive means no such curve, though single readings can be large or run the other way. No potency is given beside an inconclusive call; the fits are too rough. The source holds several records for some structures; these can differ, active in one and inactive in another.

test: Primary qHTS for delayed death inhibitors of the malarial parasite plastid, 48 hour incubation; details: P. falciparum luciferase growth in erythrocytes; series mostly up to 28.7 µM; activity change, negative = inhibition: at the top concentration
Method in brief: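 Parasite viability was followed by luminescence of a genomically integrated firefly luciferase. Cultures held 0.1% parasitemia at 2% hematocrit (final), incubated under 5% CO2 at 37 C.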
On the % scale 0 is the no-effect control and ±100 the full control effect; potency means the concentration at half of the fitted maximal effect; tags describe the fitted curve by direction and shape.

Question: For Cc1ccc(NC(=O)CCNS(=O)(=O)c2cc(Br)cnc2N)cc1Cl, which Potency is on record?
Answer: inconclusive [inhibitor, partial curve, poor fit]

Question: For Cc1cc(-c2ccccc2)c2c3c(c(-c4ccccc4)n2n1)c(=O)n(C)c(=O)n3C, which Potency is on record?
Answer: inconclusive [inhibitor, partial curve, poor fit]

Question: Which Potency does the source give for Cc1ccc(OS(=O)(=O)c2ccccc2)c(/C=N/N=C2\NC(=O)C(C)S2)c1 (configuration not stated) here?
Answer: inconclusive [inhibitor, partial curve, poor fit]

Question: Which “activity change, negative = inhibition” value does the source give for Cc1cc(NS(=O)(=O)c2ccc(NC(=O)/C=C/c3ccco3)cc2)nc(C)n1 here?
Answer: inactive: -8.94%

Question: Which “activity change, negative = inhibition” value does the source give for C=CCNC(=O)c1c(N)n(Cc2ccco2)c2nc3ccccc3nc12 here?
Answer: inactive: 30.3%

Question: For COc1ccc(C(C(=O)NCC2CCCO2)N(Cc2cccs2)C(=O)c2snc(C(N)=O)c2N)cc1 (configuration not stated), which Potency is on record?
Answer: inconclusive [inhibitor, single point]

Question: Which Potency does the source give for Oc1ccc(CN2CCCCC2)c2cccnc12 here?
Answer: inconclusive [inhibitor, single point]

Question: For C=CCn1c2ccccc2c2nnc(SCc3[nH]c(=O)[nH]c3C(=O)CCCCC(=O)OCC)nc21, which Potency is on record?
Answer: inconclusive [inhibitor, single point]

Question: For CC(C)CNC(=O)c1cccc(NC(=O)c2ccc(NC(=O)c3ccco3)cc2)c1, which Potency is on record?
Answer: inconclusive [inhibitor, single point]

Question: Which Potency does the source give for O=C1C(=O)c2ncccc2-c2cccnc21 here?
Answer: active: 0.675 µM

Question: For O=C(Nc1ccc(Cc2ccncc2)cc1)C1CCC(N2C(=O)C3C4C=CC(C5CC45)C3C2=O)CC1 (configuration not stated), which Potency is on record?
Answer: inconclusive [inhibitor, single point]

Question: Which “activity change, negative = inhibition” value does the source give for O=[N+]([O-])c1ccc(-c2cn(-c3ccccc3F)c(=S)[nH]2)cc1 here?
Answer: inactive: 66.1%

Question: With COc1ccc(OC)c(S(=O)(=O)N(C)CC(=O)N2CCN(c3cccc(Cl)c3)CC2)c1 as the compound, how does the Potency read?
Answer: inconclusive [inhibitor, partial curve]

Question: With O=C(NCc1ccc2c(c1)OCO2)C1CCCN1S(=O)(=O)c1ccc(F)cc1 (configuration not stated) as the compound, how does the Potency read?
Answer: active: 2.33 µM

Question: Which “activity change, negative = inhibition” value does the source give for Cc1ccc2nc(-c3ccc(N)cc3)sc2c1 here?
Answer: inactive: 0%

Question: Which Potency does the source give for COc1ccc(CCNC(=O)c2ccccc2NC(=O)CN2CCN(c3ccccc3O)CC2)cc1 here?
Answer: active: 10.4 µM

Question: With Cn1nc(C(=O)Nc2ccccc2N2CCCC2)c2ccccc2c1=O as the compound, how does the Potency read?
Answer: inconclusive [inhibitor, full curve, poor fit]

Question: With CCc1ccc(-c2nc(CS(=O)CC(=O)NCc3ccccc3)c(C)o2)cc1 (configuration not stated) as the compound, how does the “activity change, negative = inhibition” value read?
Answer: inactive: 14.2%

Question: With C=CCn1c(SCc2cc(=O)n3cc(C)ccc3n2)nnc1-c1ccc(F)cc1 as the compound, how does the “activity change, negative = inhibition” value read?
Answer: inactive: -27.2%

Question: Which “activity change, negative = inhibition” value does the source give for CCC(=O)Nc1nc2cc(OC)ccc2s1 here?
Answer: inactive: 241%

Question: Which Potency does the source give for Cc1c(OC(C)C(=O)NCCCN2CCOCC2)ccc2c3c(c(=O)oc12)CCC3 (configuration not stated) here?
Answer: inconclusive [inhibitor, partial curve, poor fit]

Question: Which “activity change, negative = inhibition” value does the source give for COc1ccc(NC(=O)CN(C)S(=O)(=O)c2cnc[nH]2)cc1Cl here?
Answer: inactive: 30.6%

Question: With COCCOC(=O)C1=C(C)NC2=C(C(=O)CC(c3cccs3)C2)C1c1ccsc1 (configuration not stated) as the compound, how does the Potency read?
Answer: inconclusive [inhibitor, single point]

Question: For O=c1c2sc3nc(N4CCOCC4)c4c(c3c2nnn1Cc1ccccc1)CCCC4, which Potency is on record?
Answer: inconclusive [inhibitor, partial curve, poor fit]

Question: For Cc1onc(-c2ccccc2)c1C(=O)OCC(=O)Nc1ccc(C#N)cc1, which Potency is on record?
Answer: inconclusive [inhibitor, single point]

Question: Which Potency does the source give for COC(=O)CCCC(=O)N1CCCC(CCC(=O)NCc2ccc(F)c(F)c2)C1 (configuration not stated) here?
Answer: active: 8.28 µM

Question: For Cc1cccc(CS(=O)(=O)Cc2ccc(C(=O)NCc3ccco3)o2)c1, which Potency is on record?
Answer: inconclusive [inhibitor, full curve, poor fit]

Question: Which Potency does the source give for CCOC(=O)c1c(CN2CCCCC2)oc2ccc(O)cc12 here?
Answer: inconclusive [inhibitor, single point]

Question: Which Potency does the source give for Cc1c2cnn(-c3ccccc3)c(=O)c2c(C)n1CCCC(=O)N1CCN(c2ncccn2)CC1 here?
Answer: inconclusive [inhibitor, partial curve, poor fit]

Question: With COc1ccc(N(CC(=O)N2CCc3ccccc32)S(=O)(=O)c2c(C)n[nH]c2C)cc1 as the compound, how does the Potency read?
Answer: inconclusive [inhibitor, single point]

Question: With CCOc1ccc(C2=Nc3ccccc3C(c3ccc(N4CCOCC4)cc3)=NN2)cc1 as the compound, how does the Potency read?
Answer: inconclusive [inhibitor, single point]

Question: Which Potency does the source give for CCOc1nc(NC(C)C)nc(NC(C)C)n1 here?
Answer: inconclusive [inhibitor, single point]

Question: With CCN1C(=NCCc2cccs2)N[C@@H](c2cccs2)C(C(=O)OC)=C1C as the compound, how does the Potency read?
Answer: active: 7.38 µM

Question: Which Potency does the source give for CCCN(CC(=O)Nc1ccccc1C)C(=O)Cc1c(C)nc2ccccc2c1C here?
Answer: active: 10.4 µM

Question: For C=Cn1cc[n+](CC(=O)c2cc(C(C)(C)C)c(O)c(C(C)(C)C)c2)c1, which Potency is on record?
Answer: active: 6.57 µM

Question: With CC1CC(C)CN(S(=O)(=O)c2ccc(NC(=O)[C@@H]3CCCN3C(=O)c3cccs3)cc2)C1 (some centres not stated) as the compound, how does the Potency read?
Answer: active: 11.7 µM

Question: For CN(C)[C@@H]1C(=O)C(C(N)=O)=C(O)[C@@]2(O)C(=O)C3=C(O)c4c(O)cccc4[C@@](C)(O)[C@H]3[C@H](O)[C@@H]12, which Potency is on record?
Answer: active: 13.5 µM

Question: With CCCN1CCN(C(=O)c2oc3ccccc3c2NC(=O)COc2ccc(OC)cc2)CC1 as the compound, how does the Potency read?
Answer: inconclusive [inhibitor, single point]

Question: Which Potency does the source give for COC(=O)CCCC1=CC2=CC(=O)C(C)(OC(=O)c3cccs3)C(=O)C2=CN1C1CC1 (configuration not stated) here?
Answer: inconclusive [inhibitor, single point]

Question: Which Potency does the source give for COc1ccc(-c2nc(C(=O)NCCCN3CCOCC3)cc3c2[nH]c2ccccc23)cc1OC here?
Answer: inconclusive [inhibitor, full curve, poor fit]

Question: Which Potency does the source give for CC(C)CCC(CCNCc1ccccn1)c1ccc2c(c1)OCO2 (configuration not stated) here?
Answer: inconclusive [inhibitor, partial curve]

Question: Which Potency does the source give for COc1cc(Br)c(C(C)NC(=O)c2cccc(Br)c2)cc1OC (configuration not stated) here?
Answer: active: 1.85 µM
